Laboratory results from patent US20210380699A1 (published 2021).

Columns and labels:
[1] = biological target: T1, Human PD-L1 His (human PD-L1 ECD with C-terminal His tag) (human, UniProt Q9NZQ7 in part); assay: SPR 25C, antibody captured, PD-L1 analyte
T1 construct: Biotinylated in ELISA and AlphaScreen assays; also called hPD-L1-his; biotinylated PD-L1 his

[2] = biological target: T1, Human PD-L1 His (human PD-L1 ECD with …); assay: SPR 25C, antibody captured, PD-L1 analyte; remark: listed apart in the source
Procedure: Label-free surface plasmon resonance (SPR) analysis was carried out on the ProteOn XPR36 (BioRad) array SPR machine. An anti-human IgG capture surface was created on a GLC biosensor chip using amine coupling of an anti-human IgG from GE Healthcare. […] The assay was carried out at 25° C. using HBS-EP (Teknova H8022). Buffer alone was used to reference the binding sensorgrams. The data was analysed using the 1:1 model inherent to the ProteOn XPR36 analysis software.

[3] = biological target: T1, Human PD-L1 His (human PD-L1 ECD with …); assay: ELISA, biotin-PD-L1 to plate-bound CD80, antibody titrated
Procedure: (§1) Excess protein was removed by washing with PBS-Tween (0.1% v/v) and the wells were blocked with 1% w/v bovine serum albumin (BSA, Sigma) in PBS for 1 hour at room temperature, after which plates were washed as described previously. 60 μL of a titration (three-fold dilutions from 100 nM) of antibody was added to a 96-well, non-binding plate diluted in ELISA assay buffer (PBS+0.1% BSA). […] The plate was incubated for 30 min before transferring 50 μL to the coated plates.
(§2) The coated plates were incubated for 1 hour at room temperature. Excess protein was removed by washing with PBS-Tween (0.1% v/v). PD-L1 binding was detected using streptavidin labelled Europium (Perkin Elmer) diluted 1/1000 in DELFIA assay buffer (Perkin Elmer). The plates were washed with TBS (Tris buffered saline)-Tween (0.1% v/v) and 50 μL/well of DELFIA Enhancement solution (Perkin Elmer) was added to the plate. The time-resolved fluorescence was measured at 615 nm on an Envision plate reader (PerkinElmer). Percentage specific binding was calculated as defined in Equation 3.

[4] = biological target: T1, Human PD-L1 His (human PD-L1 ECD with …); assay: ELISA, biotin-PD-L1 to plate-bound PD-1, antibody titrated
Procedure: as §1, §2

T1 sequence (Q9NZQ7 19-238 limits assumed): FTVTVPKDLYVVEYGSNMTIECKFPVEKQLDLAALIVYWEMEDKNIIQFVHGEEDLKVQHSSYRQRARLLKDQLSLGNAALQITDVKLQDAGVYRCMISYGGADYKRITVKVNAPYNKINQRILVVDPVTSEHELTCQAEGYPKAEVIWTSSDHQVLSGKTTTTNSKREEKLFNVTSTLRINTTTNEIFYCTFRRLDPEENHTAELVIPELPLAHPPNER

Binder | Kd [1] | Kd [2] | IC50 [3] | IC50 [4]
1D05 - IgG1 disabled (LAGA) (antibody, also called Antibody 1; 1D05 hIgG1 LAGA) heavy: EVQLVESGGGLVQPGRSLRLSCAASGFTFDDYAMHWVRQVPGKGLEWVSGISWIRTGIGYADSVKGRFTIFRDNAKNSLYLQMNSLRAEDTALYYCAKDMKGSGTYGGWFDTWGQGTLVTVSS[human IgG1 constant region with L235A G237A (EU numbers) omitted] light: [about 100 residues omitted][about 100 residues omitted] | 0.35 nM |  |  | 
1D05 D5-7 ICK (other, immunocytokine, IL-2 variant on light chain C-terminus; also called 1D05 IC64 (D5-7)) heavy: EVQLVESGGGLVQPGRSLRLSCAASGFTFDDYAMHWVRQVPGKGLEWVSGISWIRTGIGYADSVKGRFTIFRDNAKNSLYLQMNSLRAEDTALYYCAKDMKGSGTYGGWFDTWGQGTLVTVSS[human IgG1 constant region with L235A G237A (EU numbers) omitted] light: [about 100 residues omitted]RTVAAPSVFIFPPSDEQLKSGTASVVCLLNNFYPREAKVQWKVDNALQSGNSQESVTEQDSKDSTYSLSSTLTLSKADYEKHKVYACEVTHQGLSSPVTKSFNRGECAPTSKKTQLQLEHLLLDLQMILNGINNYKNPKLTRMLTFKFYMPKKATELKHLQCLEEELKPLEEVLNLAQSKNFHLRPRDLISNINVIVLELKGSETTFMCEYADETATIVEFLNRWITFCQSIISTLT |  | 0.214 nM |  | 
1D05 D1-9 ICK (other, immunocytokine, IL-2 variant on light chain C-terminus; also called 1D05 IC46 (D1-9)) heavy: EVQLVESGGGLVQPGRSLRLSCAASGFTFDDYAMHWVRQVPGKGLEWVSGISWIRTGIGYADSVKGRFTIFRDNAKNSLYLQMNSLRAEDTALYYCAKDMKGSGTYGGWFDTWGQGTLVTVSS[human IgG1 constant region with L235A G237A (EU numbers) omitted] light: [about 100 residues omitted]RTVAAPSVFIFPPSDEQLKSGTASVVCLLNNFYPREAKVQWKVDNALQSGNSQESVTEQDSKDSTYSLSSTLTLSKADYEKHKVYACEVTHQGLSSPVTKSFNRGECTQLQLEHLLLDLQMILNGINNYKNPKLTRMLTFKFYMPKKATELKHLQCLEEELKPLEEVLNLAQSKNFHLRPRDLISNINVIVLELKGSETTFMCEYADETATIVEFLNRWITFCQSIISTLT |  | 0.195 nM | 1.07 nM | 1.75 nM
1D05 D9-8 ICK (other, immunocytokine, IL-2 variant on light chain C-terminus) heavy: EVQLVESGGGLVQPGRSLRLSCAASGFTFDDYAMHWVRQVPGKGLEWVSGISWIRTGIGYADSVKGRFTIFRDNAKNSLYLQMNSLRAEDTALYYCAKDMKGSGTYGGWFDTWGQGTLVTVSS[human IgG1 constant region with L235A G237A (EU numbers) omitted] light: [about 100 residues omitted]RTVAAPSVFIFPPSDEQLKSGTASVVCLLNNFYPREAKVQWKVDNALQSGNSQESVTEQDSKDSTYSLSSTLTLSKADYEKHKVYACEVTHQGLSSPVTKSFNRGECAPTSSSTTQLQLEHLLLDLQMILNGINNYKNPKLTRMLTFKFYMPKKATELKHLQCLEEELKPLEEVLNLAQSKNFHLRPRDLISNINVIVLELKGSETTFMCEYADETATIVEFLNRWITFCQSIISTLT |  | 0.225 nM |  | 
1D05 D9-7 ICK (other, immunocytokine, IL-2 variant on light chain C-terminus; also called 1D05 LC D9-7 ICK) heavy: EVQLVESGGGLVQPGRSLRLSCAASGFTFDDYAMHWVRQVPGKGLEWVSGISWIRTGIGYADSVKGRFTIFRDNAKNSLYLQMNSLRAEDTALYYCAKDMKGSGTYGGWFDTWGQGTLVTVSS[human IgG1 constant region with L235A G237A (EU numbers) omitted] light: [about 100 residues omitted]RTVAAPSVFIFPPSDEQLKSGTASVVCLLNNFYPREAKVQWKVDNALQSGNSQESVTEQDSKDSTYSLSSTLTLSKADYEKHKVYACEVTHQGLSSPVTKSFNRGECAPTSSSTQLQLEHLLLDLQMILNGINNYKNPKLTRMLTFKFYMPKKATELKHLQCLEEELKPLEEVLNLAQSKNFHLRPRDLISNINVIVLELKGSETTFMCEYADETATIVEFLNRWITFCQSIISTLT |  | 0.2 nM | 0.7 nM | 1.15 nM

More lines, now with the values ahead:

Kd [1] | Kd [2] | IC50 [3] | IC50 [4] | Binder
 | 0.211 nM |  |  | 1D05 D9-6 ICK (other, immunocytokine, IL-2 variant on light chain C-terminus) heavy: EVQLVESGGGLVQPGRSLRLSCAASGFTFDDYAMHWVRQVPGKGLEWVSGISWIRTGIGYADSVKGRFTIFRDNAKNSLYLQMNSLRAEDTALYYCAKDMKGSGTYGGWFDTWGQGTLVTVSS[human IgG1 constant region with L235A G237A (EU numbers) omitted] light: [about 100 residues omitted]RTVAAPSVFIFPPSDEQLKSGTASVVCLLNNFYPREAKVQWKVDNALQSGNSQESVTEQDSKDSTYSLSSTLTLSKADYEKHKVYACEVTHQGLSSPVTKSFNRGECAPTSSTQLQLEHLLLDLQMILNGINNYKNPKLTRMLTFKFYMPKKATELKHLQCLEEELKPLEEVLNLAQSKNFHLRPRDLISNINVIVLELKGSETTFMCEYADETATIVEFLNRWITFCQSIISTLT
 | 0.211 nM |  |  | 1D05 D1-6 ICK (other, immunocytokine, IL-2 variant on light chain C-terminus) heavy: EVQLVESGGGLVQPGRSLRLSCAASGFTFDDYAMHWVRQVPGKGLEWVSGISWIRTGIGYADSVKGRFTIFRDNAKNSLYLQMNSLRAEDTALYYCAKDMKGSGTYGGWFDTWGQGTLVTVSS[human IgG1 constant region with L235A G237A (EU numbers) omitted] light: [about 100 residues omitted]RTVAAPSVFIFPPSDEQLKSGTASVVCLLNNFYPREAKVQWKVDNALQSGNSQESVTEQDSKDSTYSLSSTLTLSKADYEKHKVYACEVTHQGLSSPVTKSFNRGECTKKTQLQLEHLLLDLQMILNGINNYKNPKLTRMLTFKFYMPKKATELKHLQCLEEELKPLEEVLNLAQSKNFHLRPRDLISNINVIVLELKGSETTFMCEYADETATIVEFLNRWITFCQSIISTLT
 | 0.203 nM |  |  | 1D05 D5-9 ICK (other, immunocytokine, IL-2 variant on light chain C-terminus; also called 1D05 IC45 (D5-9)) heavy: EVQLVESGGGLVQPGRSLRLSCAASGFTFDDYAMHWVRQVPGKGLEWVSGISWIRTGIGYADSVKGRFTIFRDNAKNSLYLQMNSLRAEDTALYYCAKDMKGSGTYGGWFDTWGQGTLVTVSS[human IgG1 constant region with L235A G237A (EU numbers) omitted] light: [about 100 residues omitted]RTVAAPSVFIFPPSDEQLKSGTASVVCLLNNFYPREAKVQWKVDNALQSGNSQESVTEQDSKDSTYSLSSTLTLSKADYEKHKVYACEVTHQGLSSPVTKSFNRGECAPTSTQLQLELLLDLQMILNGINNYKNPKLTRMLTFKFYMPKKATELKHLQCLEEELKPLEEVLNLAQSKNFHLRPRDLISNINVIVLELKGSETTFMCEYADETATIVEFLNRWITFCQSIISTLT
 | 0.208 nM |  |  | 1D05 D4-8 ICK (other, immunocytokine, IL-2 variant on light chain C-terminus) heavy: EVQLVESGGGLVQPGRSLRLSCAASGFTFDDYAMHWVRQVPGKGLEWVSGISWIRTGIGYADSVKGRFTIFRDNAKNSLYLQMNSLRAEDTALYYCAKDMKGSGTYGGWFDTWGQGTLVTVSS[human IgG1 constant region with L235A G237A (EU numbers) omitted] light: [about 100 residues omitted]RTVAAPSVFIFPPSDEQLKSGTASVVCLLNNFYPREAKVQWKVDNALQSGNSQESVTEQDSKDSTYSLSSTLTLSKADYEKHKVYACEVTHQGLSSPVTKSFNRGECAPTKTQLQLEHLLLDLQMILNGINNYKNPKLTRMLTFKFYMPKKATELKHLQCLEEELKPLEEVLNLAQSKNFHLRPRDLISNINVIVLELKGSETTFMCEYADETATIVEFLNRWITFCQSIISTLT
 | 0.171 nM |  |  | 1D05 D9-3 ICK (other, immunocytokine, IL-2 variant on light chain C-terminus) heavy: EVQLVESGGGLVQPGRSLRLSCAASGFTFDDYAMHWVRQVPGKGLEWVSGISWIRTGIGYADSVKGRFTIFRDNAKNSLYLQMNSLRAEDTALYYCAKDMKGSGTYGGWFDTWGQGTLVTVSS[human IgG1 constant region with L235A G237A (EU numbers) omitted] light: [about 100 residues omitted]RTVAAPSVFIFPPSDEQLKSGTASVVCLLNNFYPREAKVQWKVDNALQSGNSQESVTEQDSKDSTYSLSSTLTLSKADYEKHKVYACEVTHQGLSSPVTKSFNRGECAPTQLQLEHLLLDLQMILNGINNYKNPKLTRMLTFKFYMPKKATELKHLQCLEEELKPLEEVLNLAQSKNFHLRPRDLISNINVIVLELKGSETTFMCEYADETATIVEFLNRWITFCQSIISTLT

Where two headings read alike, the source gives them in different places.
